Data from article PMC4336329 (PLoS ONE, 2015).
The whole screen tested about 310,000 compounds, of which about 2,200 (0.71%) showed an effect of 50% or more. The effect is printed as a negative number. The list shows a part of the results.

The compounds below were run against human ether-à-go-go-related gene (hERG) potassium channel (human, UniProt Q12809) (assay: primary screen, population patch clamp on CHO cells stably expressing hERG).
Chain of human ether-à-go-go-related gene (hERG) potassium channel (Q12809 whole entry, looked up): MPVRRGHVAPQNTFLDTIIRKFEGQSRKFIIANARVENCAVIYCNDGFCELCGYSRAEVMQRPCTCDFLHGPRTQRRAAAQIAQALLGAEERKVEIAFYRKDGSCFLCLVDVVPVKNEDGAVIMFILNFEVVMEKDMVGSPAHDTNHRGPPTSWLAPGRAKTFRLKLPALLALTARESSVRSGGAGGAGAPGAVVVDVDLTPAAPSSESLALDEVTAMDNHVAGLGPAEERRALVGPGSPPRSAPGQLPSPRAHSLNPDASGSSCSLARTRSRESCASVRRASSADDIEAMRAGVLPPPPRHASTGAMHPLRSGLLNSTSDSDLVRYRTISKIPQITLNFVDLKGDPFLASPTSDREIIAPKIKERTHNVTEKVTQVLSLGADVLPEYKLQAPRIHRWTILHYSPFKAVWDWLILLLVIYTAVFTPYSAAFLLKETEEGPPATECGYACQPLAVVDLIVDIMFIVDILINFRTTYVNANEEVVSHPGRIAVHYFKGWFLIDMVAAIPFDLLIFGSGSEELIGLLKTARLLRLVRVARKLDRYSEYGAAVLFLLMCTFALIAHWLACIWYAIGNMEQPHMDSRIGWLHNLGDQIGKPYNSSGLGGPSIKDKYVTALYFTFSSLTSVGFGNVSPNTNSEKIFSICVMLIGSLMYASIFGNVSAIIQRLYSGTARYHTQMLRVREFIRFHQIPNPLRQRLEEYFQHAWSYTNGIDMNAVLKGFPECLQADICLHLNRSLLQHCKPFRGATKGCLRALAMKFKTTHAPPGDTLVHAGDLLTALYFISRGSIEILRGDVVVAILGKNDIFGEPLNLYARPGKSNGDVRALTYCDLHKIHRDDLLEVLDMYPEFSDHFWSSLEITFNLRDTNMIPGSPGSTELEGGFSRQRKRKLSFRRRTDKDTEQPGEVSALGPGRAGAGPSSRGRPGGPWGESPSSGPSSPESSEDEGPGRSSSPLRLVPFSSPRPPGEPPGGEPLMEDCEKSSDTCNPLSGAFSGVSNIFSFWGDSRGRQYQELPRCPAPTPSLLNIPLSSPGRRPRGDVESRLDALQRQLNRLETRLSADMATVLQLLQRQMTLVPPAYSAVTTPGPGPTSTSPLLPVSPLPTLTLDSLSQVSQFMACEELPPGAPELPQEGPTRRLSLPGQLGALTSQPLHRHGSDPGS

SMILES | hERG current change (%, negative = inhibition) at 1uM
O=C(O)c1cccc(COCC(F)(F)C(F)F)c1 | 5.45%
COc1cc(CNC(=O)OCC(C)C)cc(OC)c1OC | 6.25%
O=C(COc1ccc2ccc(=O)oc2c1)NC1CCCC1 | 10.7%
O=C(Nc1c(C(=O)Nc2cccc(F)c2)oc2ccccc12)c1ccc2c(c1)OCO2 | 0.361%
CCOC(=O)c1sc(NC(=O)CNC(=O)Cn2cnc3sc(C)c(C)c3c2=O)nc1C | 9.75%
Cc1nc(CCNC(=O)c2cccs2)cs1 | 4.05%
O=c1c(-c2ccc(O)cc2O)coc2cc(O)cc(O)c12 | -7.47%
Cc1ccc(CN(C)C(=O)c2cccc(S(=O)(=O)N3CCN(Cc4ccccc4)CC3)c2)o1 | 4.88%
COC(=O)c1cc(C(=O)OCC(=O)N2c3ccccc3NC(=O)C2(C)C)cc([N+](=O)[O-])c1 | 1.25%
Cc1ccccc1Cn1nnc(-c2ccc3c(c2)OCO3)n1 | 11.5%
COC(=O)c1c(NC(=O)Cc2cccs2)sc(C(=O)NC2CCCCC2)c1C | 9.85%
C=CCC1CCCCC12NC(=O)NC2=O (stereo not shown) | 3.87%
CCOC(=O)c1nnn(-c2nonc2N)c1-c1ccc(OC)cc1 | 10.2%
O=C(CCNS(=O)(=O)c1ccccc1C(F)(F)F)NCC(c1ccco1)N1CCCCC1 (stereo not shown) | 5.62%
Clc1ccc(-c2nnc(-c3cccc4ccccc34)o2)cc1Cl | 14.4%
C=C(C)CSc1nncn1/N=C/c1ccc(OC)cc1 | 13%
COc1ccc(CNC(=O)COC(=O)/C=C/c2cccc(Br)c2)cc1OC | 14.9%
COc1cccc(NC(=O)CSc2nnnn2C2CCCC2)c1 | 3.66%
CC(C)CC1NC(=S)N(C2CCCCC2)C1=O (stereo not shown) | 4.7%
O=C(O)C1CCCCC1C(=O)NCCCn1ccnc1 (stereo not shown) | 3.61%
Cc1cccc(C(=O)N2CCC(N3CCC(C(=O)N4CCOCC4)CC3)CC2)c1 | 10.6%
COc1ccc(C(=O)COc2ccc3ccc(=O)oc3c2)cc1 | 10.1%

SMILES | hERG current change (%, negative = inhibition) at 1uM
CCNCC(=O)N1c2ccccc2CCc2ccc(NC(C)=O)cc21 | 27.5%
O=c1c2ccccc2ncn1CCCSc1ccccc1 | 5.35%
O=C(NCCS(=O)(=O)N1CCN(c2ccc(F)cc2)CC1)c1ccc2c(c1)OCO2 | 3.21%
COc1ccc(CN(C)C2CCCCC2)cc1 | -3.86%
COc1ccc(N2C(=O)CC(Sc3n[nH]c(-c4ccccc4)n3)C2=O)cc1 (stereo not shown) | 3.53%
CCOC(=O)c1c(NC(=O)COC(=O)CCOc2ccc(OCC)cc2)sc(C(=O)N(C)C)c1C | 15.4%
CCOc1ccc(N(CC(=O)NCCc2ccccc2)C(=O)c2csnn2)cc1 | -5.46%
COCC(CN1CCN(C2=NS(=O)(=O)c3ccccc32)CC1)OC(=O)c1ccc(OC)cc1 (stereo not shown) | 7.07%
O=C(CNC(=O)c1cccs1)N/N=C/c1c[nH]c2ccccc12 | 6.05%
Cc1cc(C(=O)N2CCN(c3ccc([N+](=O)[O-])cc3)CC2)c(C)o1 | -35.1%
Cc1ccc(-c2c(C(=O)N/N=C/C3CC=CCC3)nnn2-c2nonc2N)cc1 (stereo not shown) | 16.4%
Cc1cc(=O)oc2cc(OCc3ccc(C(=O)OCC(=O)N(C)C4CCS(=O)(=O)C4)cc3)ccc12 (stereo not shown) | 11.6%
Cc1cc(C)c2oc(-c3cccc(NC(=O)c4ccc(F)cc4)c3)nc2c1 | 2.68%
CCOC(=O)N1CCC(NC(=O)CS(=O)(=O)Cc2nc(-c3ccccc3C)oc2C)CC1 | 4.51%
Fc1ccc(CNc2ccc(N3CCN(Cc4ccccc4)CC3)cc2)cc1 | 5.52%
O=C(O)c1ccc(NS(=O)(=O)c2cc(C(=O)O)ccc2Br)cc1 | 13.3%
Cc1ccc(-n2nc3ccc(NC(=O)c4cccc([N+](=O)[O-])c4C)cc3n2)cc1 | 14.3%
Cc1ccc(NC(=O)N2CCOCC2)c(C)c1 | 14.4%
O=C(COC(=O)/C=C/c1ccc(S(=O)(=O)N2CCCCCC2)cc1)NCc1ccccc1Cl | 12.1%
Cc1c(NC(=O)COc2ccccc2Cl)c(=O)n(-c2ccccc2)n1C | 5.08%
CC(CC(=O)O)CC(=O)N1CCN(S(=O)(=O)c2cccs2)CC1 (stereo not shown) | -4.98%
CSc1ccc(CN2CCCC(CO)(Cc3ccccc3)C2)cc1 (stereo not shown) | -10.5%

SMILES | hERG current change (%, negative = inhibition) at 1uM
CCC(C)NC(=O)COC(=O)c1ccccc1OCC(=O)Nc1ccc(Br)cc1 (stereo not shown) | 8.27%
CCOP(=O)(OCC)C(NC(=O)c1ccccc1C)C(Cl)(Cl)Cl (stereo not shown) | 8.85%
Cc1ccc2nc3sc(C(=O)NCc4ccco4)c(N)c3cc2c1 | 5.32%
Cc1nn(-c2ccccc2)c(C)c1/C=N/N1CCN(c2ccccn2)CC1 | 13.8%
Cc1c(C(=O)c2ccc(Cl)c(Cl)c2)cnc2cc3c(cc12)OCO3 | 11.7%
Cc1ccc(-n2nnnc2SCn2nnc3ccccc3c2=O)c(C)c1 | 2.92%
CC(C)COP(=O)(c1ccc(N(C)C)cc1)C(O)c1ccc(Br)cc1 (stereo not shown) | 17.1%
COc1ccc(C(CC(=O)N2CCCCC2)C(C)C)cc1 (stereo not shown) | 32.2%
Cc1ccc(NC(=O)COC(=O)C2CCC(=O)N2)c([N+](=O)[O-])c1 (stereo not shown) | -2.2%
O=C(NC1CCCc2ccccc21)C1CCCC1 (stereo not shown) | 5.11%
C=CCn1c(SCC(=O)Nc2ccc3c(c2)OCCO3)nnc1-c1ccccn1 | -2.19%
CC(=O)N(Cc1ccccc1)c1ccc(C(=O)O)cc1 | 9.43%
O=C(COc1cccnc1[N+](=O)[O-])N1CCc2ccccc21 | 13.6%
Cc1ccc(C(=O)Nc2ccccc2Oc2ccccc2)cc1[N+](=O)[O-] | -7.55%
CC(=O)N1CCc2cc(S(=O)(=O)NC(C(=O)N3CCN(c4ccccc4F)CC3)C(C)C)ccc21 (stereo not shown) | 9.08%
CC1(C)CC(=O)C2=C(C1)N(c1cccc(O)c1)C1=C(C2)C(=O)CC(C)(C)C1 | -1.35%
O=C(NCCc1ccccc1)c1ccccc1C(=O)NCCc1ccccc1 | 14.4%
O=C1/C(=C\c2cccnc2)Sc2ccccc21 | 9.31%
CCOC(=O)CCNc1n[nH]c(=O)[nH]c1=O | 6.46%
Cn1c(=O)c(C(=O)CN2CCOCC2)c(N)n(Cc2ccccc2)c1=O | 5.4%
CCCSC1=N/C(=C\C=C\c2ccco2)C(=O)S1 | 13.2%
O=C(Cc1ccccc1)NCC(=O)N/N=C/c1ccc([N+](=O)[O-])s1 | 7.73%

SMILES | hERG current change (%, negative = inhibition) at 1uM
O=C(Nn1cnnc1)c1csc2ccccc12 | 0.0323%
COc1cccc(C(=O)N2CCN(Cc3cn[nH]c3-c3ccc(F)cc3F)CC2)c1 | 0.769%
O=P(O)(Oc1ccccc1)OC(c1ccccc1)C(F)(F)C(F)(F)F (stereo not shown) | 12.6%
CS(=O)(=O)N(CC(=O)N1CCOCC1)Cc1ccccc1 | -2.81%
O=c1[nH]c2ccc(S(=O)(=O)Nc3ccc(Cl)cc3)cc2o1 | 17%
O=C1C2CCCN2C(c2ccncc2)N1c1ccc(Cl)c(Cl)c1 (stereo not shown) | 15.8%
NC(=O)CC(NC(=O)Cc1ccc(Br)cc1)c1ccc(N2CCC(Cc3ccccc3)CC2)c([N+](=O)[O-])c1 (stereo not shown) | 7.53%
CCn1cc(CN2CCC(n3nccc3NC(=O)c3cccc(F)c3)CC2)cn1 | 6.11%
C=Cn1ccnc1P(=S)(c1ccccc1)c1nccn1C=C | 18.5%
O=C(Nc1c2c(nn1-c1ccccc1)CS(=O)(=O)C2)C1CCCC1 | 8.74%
N/C(=N\OC(=O)c1ccco1)c1cccc([N+](=O)[O-])c1 | 18.2%
Cn1ncc2c(Nc3cccc(Cl)c3)nc(Nc3cccc(Cl)c3)nc21 | 9.36%
Nc1nc(SCC(=O)NCC2CCCO2)[nH]c(=O)c1NC(=O)c1ccc(F)c(F)c1 (stereo not shown) | 18.5%
O=C(CCCc1ccccc1)Nc1cccc([N+](=O)[O-])c1 | 14.1%
O=[N+]([O-])c1ccc(N2CCN(c3ccccc3O)CC2)cc1 | 4.7%
CCOc1ccccc1NC(=O)COC(=O)CC(C)(C)CC1=NS(=O)(=O)c2ccccc2N1 | -18.6%
CCC(C(=O)N1CCN(C(=O)c2ccco2)CC1)c1ccccc1 (stereo not shown) | 11.4%
COc1ccc2cc3[n+](cc2c1OC)CCc1cc2c(cc1-3)OCO2.[Cl-] | 11%
CC(C)Oc1ccc(S(=O)(=O)N2CCOCC2)cc1NC(=O)c1cc([N+](=O)[O-])ccc1N1CCOCC1 | -7.01%
CCOC(=O)c1cnc2c(-c3cccc(Br)c3)cnn2c1C | 2.88%
Cc1ccc(NC(=O)COc2ncnc3c(Cl)cc(Cl)cc23)cc1[N+](=O)[O-] | 0.563%
O=C(CN1C(=O)c2ccccc2S1(=O)=O)N1CCN(c2ccc(F)cc2)CC1 | 4.29%
